# Experimental data from the supplement of paper PMC3334620.
# In all, about 33,000 sequences were measured (“E-score (-0.5 to 0.5)”: median about -0.035, highest 2% from about 0.35 on). The list shows a part of the results.
# Target: T1, Pdr3 (UniProt P33200)
# T1 sequence: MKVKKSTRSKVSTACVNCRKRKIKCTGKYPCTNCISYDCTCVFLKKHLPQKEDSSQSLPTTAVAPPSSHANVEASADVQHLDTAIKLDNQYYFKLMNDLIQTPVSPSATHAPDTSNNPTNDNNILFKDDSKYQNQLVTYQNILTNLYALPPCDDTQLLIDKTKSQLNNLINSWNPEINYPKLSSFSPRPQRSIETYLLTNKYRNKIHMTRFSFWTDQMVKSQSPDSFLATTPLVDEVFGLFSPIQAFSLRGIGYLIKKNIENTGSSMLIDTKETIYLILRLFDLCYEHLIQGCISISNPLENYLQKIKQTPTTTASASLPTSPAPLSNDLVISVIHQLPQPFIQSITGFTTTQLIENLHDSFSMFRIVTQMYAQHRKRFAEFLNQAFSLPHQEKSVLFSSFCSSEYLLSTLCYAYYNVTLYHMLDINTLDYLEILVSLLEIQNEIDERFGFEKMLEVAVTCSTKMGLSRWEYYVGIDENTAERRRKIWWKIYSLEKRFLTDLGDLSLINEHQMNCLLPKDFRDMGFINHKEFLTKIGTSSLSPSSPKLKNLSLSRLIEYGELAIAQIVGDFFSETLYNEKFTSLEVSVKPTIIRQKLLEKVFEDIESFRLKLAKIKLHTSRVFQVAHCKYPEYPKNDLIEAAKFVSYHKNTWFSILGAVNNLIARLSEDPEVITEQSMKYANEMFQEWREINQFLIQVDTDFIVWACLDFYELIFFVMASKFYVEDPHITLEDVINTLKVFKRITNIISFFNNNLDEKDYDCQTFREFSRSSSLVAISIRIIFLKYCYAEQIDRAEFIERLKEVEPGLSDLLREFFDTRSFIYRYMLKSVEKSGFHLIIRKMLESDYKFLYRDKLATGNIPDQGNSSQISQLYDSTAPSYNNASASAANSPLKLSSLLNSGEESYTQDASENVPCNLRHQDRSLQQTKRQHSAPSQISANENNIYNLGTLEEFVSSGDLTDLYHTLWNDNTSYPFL
# Assay: PBM E-score (8-mer binding enrichment) (E-score (-0.5 to 0.5)); higher = stronger / more preferred TF binding; most listed sequences are background and not binding sites
# Conditions: protein concentration: 200 nM; construct: GST-full length
# Method in brief: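 Full-length yeast transcription factors or their DNA-binding domains, GST-tagged and expressed with PURExpress, were applied at about 100-200 nM to universal all-10-mer Agilent arrays. These arrays had been made double-stranded by primer extension on fresh or once-stripped slides. Detection used fluorescent anti-GST, normalisation used masliner, and E-scores for ungapped eight-base words pooled with reverse complements came from the Universal PBM Analysis Suite.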
row,Sequence,PBM E-score
1,ACCGCAGT,-0.0479
2,GAGCCCGA,0.0338
3,AAAAGGAC,-0.127
4,AACCACTG,0.0187
5,CCCTATGC,-0.0766
6,AGAAAGCG,-0.0665
7,ACTTCGGA,0.318
8,CCTAAGGA,-0.0766
9,AGGCGACT,-0.181
10,CAACACCG,0.0699
11,CTATAGTC,-0.252
12,ACTTACAA,-0.111
13,AAGAGTAA,-0.0182
14,ATTCCTCG,0.173
15,AACCGTAT,-0.168
16,ACTCCCCA,-0.057
17,CCGCCCCA,0.232
18,AGTGTCTA,-0.166
19,CGTAATCA,-0.0531
20,CTTACTCC,0.0953
21,ATGGGTAA,0.0423
22,GTGGCAAC,0.0213
23,ATATTATA,-0.00722
24,ATACACCG,0.1
25,ACGGAAGA,0.373

row,Sequence,PBM E-score
1,CTGGTCAA,-0.0866
2,CTAGACCA,-0.277
3,CGGCCTGA,0.00266
4,AAGCGGCC,0.0193
5,ATTTAGAA,-0.196
6,CCGTACCG,0.24
7,GGCACAAA,0.0885
8,GACAAAGA,-0.0013
9,CAGTGTAA,0.132
10,GGACCCAC,0.03
11,CACGAGCG,-0.129
12,AACCATTA,0.0693
13,AGGAGCTC,-0.135
14,CCGGTCTA,-0.0526
15,GAGGATGA,-0.114
16,AGACCATC,-0.147
17,CAGGTCTA,0.0945
18,CACTCCTC,0.0698
19,CTACGACC,-0.144
20,AGCTCCGG,0.389
21,CGGTGCTC,0.0311
22,ATAATACG,0.114
23,AACGGAAA,0.464
24,CAGGCCCG,0.125
25,ACATACTG,0.154

row,Sequence,PBM E-score
1,CACTCACG,0.0943
2,CTGATACC,-0.165
3,AGAAATCG,-0.0345
4,GACTCATA,-0.0806
5,CGGCGCTC,0.138
6,TCGCGTAA,0.00456
7,AGTCTCGA,-0.176
8,CTTCTCCC,-0.0265
9,GTCCAGCA,-0.11
10,AGTTAAGC,0.00589
11,ACTAACAC,-0.0275
12,AAGTCTCA,-0.263
13,CTAATGAA,0.0633
14,AAAGATAG,-0.169
15,AACGCATC,-0.139
16,CCTAATCG,0.0545
17,CTTTTGAA,0.0453
18,CTTGGAGA,-0.048
19,CGCGAAAA,0.096
20,TAGTGAAA,-0.159
21,CGTACTAG,-0.0852
22,GGACCTTA,0.0891
23,CCCTAGGC,-0.161
24,ATGACCGA,0.0641
25,CTACCCGA,0.167

row,Sequence,PBM E-score
1,AGAGGCGG,0.0483
2,AAACTCTG,0.0425
3,CGGGCACC,0.296
4,AAAAGTTC,0.112
5,ATTTTCTA,-0.183
6,GGTACCAA,0.00603
7,AATAGATG,-0.0108
8,GTTAGTTA,0.11
9,CGTGCTGC,-0.0883
10,GCCGAGCC,0.198
11,ACACTCGA,-0.114
12,CACTGTCC,0.0603
13,AACTGATA,0.0335
14,CTGCAACC,-0.227
15,CATTTGAA,-0.0395
16,CTCTCCGC,0.237
17,GTACTTTA,-0.147
18,CCCAGCCG,0.108
19,CCGCTGGC,-0.0496
20,GAAACACC,0.00818
21,CATAAGGG,-0.0109
22,GCCCACTA,-0.152
23,AGCCTATA,-0.132
24,AGTCCCCG,0.113
25,AATTGATC,0.119

row,Sequence,PBM E-score
1,AGTGAGAT,-0.0498
2,CCCTTGCG,-0.286
3,ATGCGTAA,-0.171
4,TATACCCA,0.0374
5,CGCAAGTC,-0.0366
6,AGTGTATC,-0.0144
7,AGGGTCGG,0.0674
8,AGAGCACT,-0.06
9,CGGGTATA,0.268
10,AACGACCA,-0.144
11,GGGGGCTA,-0.277
12,AGAACTGG,0.137
13,GGAGGACA,0.0482
14,ATGCTTCA,-0.155
15,AATGGCAT,0.181
16,AATACTGA,-0.146
17,TACAGGGA,-0.142
18,AAGCGACC,0.168
19,CGTCGGAC,0.252
20,TAAGACCA,-0.188
21,ACATACGG,0.0566
22,GGTCTAAA,-0.19
23,CTCCACCA,-0.165
24,ACTTTCTA,-0.243
25,GAAACAAC,0.172

row,Sequence,PBM E-score
1,CGAGCTGC,0.108
2,GGACCAGA,-0.0202
3,CGAGTTGA,0.0225
4,GCACGGAA,0.451
5,GCGCATCA,-0.0112
6,AAAAGGGC,-0.0865
7,AGGTAGAA,-0.104
8,CAGCTTAC,-0.193
9,AAGTCCAA,-0.0468
10,ATCGTACC,0.0118
11,CACGCAAA,-0.129
12,AATTTCCA,-0.0143
13,GGTAGGCA,-0.136
14,AAAGGTGC,-0.094
15,GGGACTAA,-0.0858
16,AGCTGCTC,-0.108
17,CGGCGGTC,0.145
18,CCTCACTC,0.0974
19,AGGCTAAC,-0.177
20,GTGTTGTA,-0.144
21,CAACACCC,0.0249
22,CTCGCCCC,-0.0132
23,TAGTAAGA,-0.161
24,ATAATAAG,-0.073
25,CGCGGGAA,0.429

row,Sequence,PBM E-score
1,GTGAGTTA,-0.0179
2,AGTGATGA,-0.101
3,CTCGCAAG,-0.185
4,AGTATTAA,0.0469
5,CAACTGAA,-0.195
6,ATGGGGCA,-0.115
7,GGAGATCA,0.171
8,ACCCAGGC,-0.0296
9,CCGCCGAA,0.277
10,AACAAGTC,-0.0618
11,CTCGGGGA,0.219
12,AAGACATA,-0.131
13,CTCCAGAA,-0.204
14,ACATCTAT,0.0984
15,GGACATAA,0.0749
16,AGCACCCC,-0.188
17,AATTGGTG,-0.101
18,GCGTCCAC,0.0752
19,ACGGCGTC,0.151
20,CGTATAAC,-0.00777
21,GCTTAAAA,0.0175
22,CATTTCCA,-0.0296
